# Test results published in PubChem BioAssay AID463173 (ICCB-Longwood Screening Facility, Harvard Medical School, 2010).
# About 1,700 (3.3%) of roughly 52,000 compounds were called active. Rule as the data show it: active = survival mostly below about 52% (no sharp cut-off); inactive = mostly above about 56%. This is one part of the list.
# System: Wild type
# Test: growth inhibition of S. aureus wild type versus tarO mutant, primary screen, teichoic acid synthesis inhibitors, RN4220, OD600 (AID 463173)
# Settings: S. aureus RN4220 wild type/DeltatarO growth, OD600, 18 h, active compounds read low, screened at 18.75 µg/mL (by protocol)
row,SMILES,survival
1,CCOCCCN(Cc1ccco1)S(=O)(=O)c1cc2c(cc1C)NC(=O)CO2,inactive: 75%
2,COc1ccc(N2Cc3cccc(C(=O)Nc4ccc(F)cc4)c3C2=O)cc1,inactive: 128%
3,Cc1ccc(C2=Nc3ccccc3N(CC(=O)NCc3ccccc3Cl)C(=O)C2)cc1C,inactive: 84%
4,O=C(Nc1c(C(=O)N2CCN(c3ccccc3)CC2)oc2ccccc12)c1ccco1,active: 10%
5,Cc1ccccc1CN1c2ccccc2-c2nc(SCC(=O)NCc3ccccc3)ncc2S1(=O)=O,active: -3%
6,Cc1c(C(=O)NCCc2ccc(Cl)cc2)sc2nc3n(c(=O)c12)CCCC3,inactive: 78%
7,CC(C)C(=O)NCC(c1ccc2c(c1)OCO2)N1CCN(c2ccccc2)CC1 (configuration not stated),inactive: 95%
8,Cc1ccc2nc(CNC(=O)c3ccccc3)[nH]c2c1,inactive: 99%
9,CNc1nc2ccccc2o1,inactive: 102%
10,Cc1cccn2c(=O)c(C(=O)NCCc3ccccc3)c(O)nc12,inactive: 70%
11,CCOc1ccc(N2C(=O)CC(NCCNC(=O)c3ccc(Cl)cc3)C2=O)cc1 (configuration not stated),inactive: 109%
12,COc1ccc(CCNC(=O)C(=O)NCC(c2ccc3c(c2)OCO3)N2CCOCC2)cc1OC (configuration not stated),inactive: 73%
13,Cc1cccc(-c2noc(CSc3nc(-c4ccc(F)cc4)cc(=O)[nH]3)n2)c1,inactive: 82%
14,C=CCNC(=O)c1ccc(CN2CCOCC2)cc1,inactive: 105%
15,CCOc1ccc(NC(=O)c2oc3ccccc3c2NC(=O)c2c(F)cccc2F)cc1,inactive: 110%
16,COc1cccc(-n2ccn(CC(=O)c3ccc(F)cc3)c(=O)c2=O)c1,inactive: 86%
17,COc1ccccc1N1CCN(C(=O)CSc2nc3ccccc3nc2Cc2ccccc2)CC1,inactive: 75%
18,CCOc1ccc(NC(=O)C2CCCN(S(=O)(=O)c3ccc4[nH]c(=O)ccc4c3)C2)cc1 (configuration not stated),inactive: 102%
19,Cc1ccc(NC(=O)C(=O)c2cc(C)n(-c3ccc(F)cc3)c2C)cc1C,inactive: 89%

row,SMILES,survival
1,COc1ccc(CNC(=O)c2cc(Nc3ccc(C)cc3C)nc3ccccc23)cc1,inactive: 91%
2,CCCN(CCC)S(=O)(=O)c1ccc2c(c1)N(CC(=O)NC(C)c1ccccc1)C(=O)CS2 (configuration not stated),inactive: 93%
3,Cc1ccc(CSC2=Nc3ccccc3C3=NC(CC(=O)NC4CCCCC4)C(=O)N23)cc1 (configuration not stated),inactive: 83%
4,COc1ccccc1N1CCN(C(=O)c2cc(-c3ccc(F)cc3)on2)CC1,inactive: 73%
5,Cc1ccc(S(=O)(=O)Nc2ccc(N=NN3CCCCC3)cc2)cc1,inactive: 89%
6,Cc1ccc2nc(-c3ccc(NC(=O)COc4ccccc4)cc3)sc2c1,inactive: 66%
7,CCN(c1cccc(C)c1)S(=O)(=O)c1nnc(NC(=O)c2ccccc2Cl)s1,inactive: 24%
8,CC(=O)c1ccc(N2C(=O)N(CC(=O)c3ccc(C)cc3)c3ccccc3S2(=O)=O)cc1,inactive: 89%
9,COc1cc(NC(=O)Cc2c(C(=O)O)c(C)cn2C)cc(OC)c1,inactive: 99%
10,CCOc1ccc(C2C(=O)N(C3CCCCC3)CC(=O)N2C2CCCC2)cc1OC (configuration not stated),inactive: 82%
11,Cc1ccc2c(c1)N(C(=O)N1CCC(C(=O)NC3CCCCCC3)CC1)CC(C)O2 (configuration not stated),inactive: 85%
12,COc1ccc(/C=C/C(=O)Nc2sc3c(c2C(N)=O)CCC(C)C3)cc1OC (configuration not stated),inactive: 64%
13,COc1ccc2nc(SCC(=O)NC3CCCCC3C)c(C#N)cc2c1 (configuration not stated),inactive: 104%
14,Cc1ccc(-n2ncc3c(N4CCN(C)CC4)ncnc32)cc1Cl,inactive: 72%
15,CCOc1ccc(NC(=O)CCS(=O)(=O)c2cccc3nonc23)cc1,inactive: 80%
16,CNC(=O)c1ccc(Nc2nnc(-c3ccc(C)c(S(=O)(=O)N4CCCCC4)c3)c3ccccc23)cc1,inactive: 81%
17,CCOC(=O)c1c(NC(=O)c2cc(C)on2)sc(C)c1C,inactive: 71%
18,Cc1cc(C)cc(OCc2ccc(C(=O)Nc3ccccc3F)o2)c1,inactive: 72%
19,COc1ccc(CNC(=O)CCC(=O)N2CC3CCCN3c3ccccc32)c(OC)c1 (configuration not stated),inactive: 73%

row,SMILES,survival
1,CCc1cccc(NC(=O)CSc2ncccc2C(=O)Oc2ccccc2Cl)c1,inactive: 80%
2,CNC(=O)c1c[nH]c2ccc(S(=O)(=O)Nc3cccc(Cl)c3C)cc2c1=O,inactive: 82%
3,NC(=O)c1cc2ccc(O)cc2oc1=O,inactive: 104%
4,Cc1cc(C)c2c(=O)cc(C(=O)Nc3sc4c(c3C(=O)NCc3cccnc3)CCCC4)oc2c1,inactive: 85%
5,C=CCn1c(=S)[nH]c2ccccc2c1=O,inactive: 116%
6,CC(C)n1c(SCC(=O)Nc2ccc(F)cc2)nc2c(oc3ccccc32)c1=O,inactive: 78%
7,CCOc1ccccc1CNC(=O)c1ccc2c(c1)sc1nc(-c3cccc(OC)c3)cn12,inactive: 79%
8,CC(C)C12CN3CC(C(C)C)(CN(C1)C3c1ccc(OCc3ccccc3)cc1)C2=O (configuration not stated),inactive: 85%
9,CCC(Sc1nc2nccnc2c(=O)n1Cc1ccc(OC)cc1)C(=O)NC1CCCCC1 (configuration not stated),inactive: 110%
10,CCOc1ccc(-n2c(SCC(=O)Nc3ccc(F)cc3)nc3c([nH]c4ccccc43)c2=O)cc1,inactive: 88%
11,COC(=O)c1cc(S(=O)(=O)NCC2CCN(Cc3ccc(C)cc3)CC2)c[nH]1,inactive: 133%
12,CC(=O)c1cccc(NC(=O)c2ccc(-n3c(C)nnc3C)cc2)c1,inactive: 67%
13,CCCC(c1nnnn1CC1CCCO1)N(Cc1cc2cc(C)cc(C)c2[nH]c1=O)C1CCCC1 (configuration not stated),inactive: 107%
14,O=C1OC(C(=O)Nc2ccc(Cl)c(C(F)(F)F)c2)Cc2ccccc21 (configuration not stated),inactive: 84%
15,COc1ccc(-c2noc(-c3ccc(N4CCCCC4C)c([N+](=O)[O-])c3)n2)cc1OC (configuration not stated),inactive: 124%
16,COc1ccccc1CNC(=O)c1ccc(N2Cc3cccc(OC)c3Oc3ncccc32)s1,inactive: 71%
17,CC(C)(C)OC(=O)N1CCC(c2nnc(SCc3ccccc3)o2)CC1,inactive: 83%
18,Cc1cc(NC(=O)COc2ccccc2)cc(-c2nc3ccccc3o2)c1O,inactive: 87%
19,CCCN1C(=O)C(Cc2nc3ccccc3c(=O)n2-c2cccc(C)c2)c2ccccc21 (configuration not stated),inactive: 40%
